# Measured values: publication PMC12136788
# The list shows a part of the results.
# B1: chr1:230709994:230710823:-|CDS|ENSG00000135744|control|control|control (ssRNA)
# RNA: GGGAGUUCUACAGUCCGACGAUCAAGGUCCUGUCUGCCCUGCAGGCUGUACAGGGCCUGCUAGUGGCCCAGGGCAGGGCUGAUAGCCAGGCCCAGCUGCUGCUGUCCACGGUGGUGGGCGUGUUCACAGCCCCAGGCCUGCACCAACAGAGGAUUGAGCAUCA
# B2: chr9:14618660:14618761:-|3pUTR|ENSG00000175893|msi1|FALSE|unique (ssRNA)
# RNA: GGGAGUUCUACAGUCCGACGAUCUUAGCUUUCCACAGGGAUUUCUUGAAAUGCUUUUGUUAUUAAACUCAAAAGGCAGUGAUUAGGAUGAAAUAAUUGUACAUAAUUUAUUUUAGUACUGACAGUGUUACAGAUUCUAAUUUACAACAGAGGAUUGAGCAUCA
# B3: chr15:43184406:43184511:+|CDS|ENSG00000137842|unk|total|mutant (ssRNA)
# RNA: GGGAGUUCUACAGUCCGACGAUCACUGCUGUACAUCUGGCAGGUUUAUUCCUGCUACUUUCUUUAUGCAACAUACGGCACCCCCGCUUUUUUAUUCUCCCCUUUGCGGACCUGGUUGACACUGCUGACACCUGUUCUCAUUCGCAACAGAGGAUUGAGCAUCA
# B4: chr16:2586768:2586869:+|CDS|ENSG00000140992|unk|total|mutant (ssRNA)
# RNA: GGGAGUUCUACAGUCCGACGAUCCUCCUCACACUCCCUGUCAGCCUCCGACACGGGCCUGCCCCAGAGGUCAGGCAGCAACACCGAGCAGUACAUUCACGAUCUGGACUCGAACUCCUUUGAACUGGACUUACAGUUUUCCGACAACAGAGGAUUGAGCAUCA
# B5: chr7:5606511:5606625:+|3pUTR|ENSG00000075618|msi1_unk|FALSE|overlapping (ssRNA)
# RNA: GGGAGUUCUACAGUCCGACGAUCGGGUGUCUUGGUCUUUUAUUUUUUGUAAGUGUCAUUUGUAUAACUCUAAACGCCCAUGAUAGUAGCUUCAAACUGGAAAUAGCGAAAUAAAAUAACUCAGUCUGCAGCCCCAGGCCGGCCCAACAGAGGAUUGAGCAUCA
# B6: ENSG00000124766:be:win_1751|3pUTR|ENSG00000124766|bound_else_gene|NA|bound_elsewhere_windowed (ssRNA)
# RNA: GGGAGUUCUACAGUCCGACGAUCACUUCGAGUUUGCUCCCCUUUGCUUGAAGAGACCCCCUCCCCCUUCCAACGAGCUUCCGGACUUGUCUGCACCCCCAGCAAGAAGGCGAGUUAGUUUUCUAGAGACUUGAAGGAGUCUCCCAACAGAGGAUUGAGCAUCA
# Target: MSI1 full-length (mouse, UniProt Q61474 1-362)
# Assay: nsRBNS (natural sequence RNA bind-n-seq); RBNS binding buffer (assumed for nsRBNS): 25 mM Tris pH 7.5, 150 mM KCl, 3 mM MgCl2, 0.01% Triton X-100, 500 ug/ml BSA, 20 U/ml SUPERase-In, 4 C; UNK is unkempt and MSI1 is Musashi-1; names of the RNAs are library labels; protein concentration not given here; high values mean tight binding
# Chain of UniProt Q61474 (Q61474 whole entry): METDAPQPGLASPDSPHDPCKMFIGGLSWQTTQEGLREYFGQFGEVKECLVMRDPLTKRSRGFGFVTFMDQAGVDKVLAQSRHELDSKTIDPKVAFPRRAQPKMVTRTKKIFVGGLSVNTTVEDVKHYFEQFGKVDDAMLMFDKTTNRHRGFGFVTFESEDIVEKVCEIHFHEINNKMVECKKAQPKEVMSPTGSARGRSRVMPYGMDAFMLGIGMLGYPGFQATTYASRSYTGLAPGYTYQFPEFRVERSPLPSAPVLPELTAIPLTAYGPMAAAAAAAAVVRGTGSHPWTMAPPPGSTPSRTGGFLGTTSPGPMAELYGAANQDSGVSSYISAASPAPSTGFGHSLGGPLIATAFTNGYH
row,Binder,binding signal
1,B1,0.313 enrichment R
2,B2,1.51 enrichment R
3,B3,0.391 enrichment R
4,B4,0.708 enrichment R
5,B5,3.58 enrichment R
6,B6,0.611 enrichment R
